Test results: paper PMC8600046
No constants are given. Whether binding was seen depends on the method and setting. In cells and extracts the contact can be indirect. Some results given as binding are weak or reduced against the parent protein; the word gives no strength.

Sequences of proteins named here, by UniProt entry; tags and fusion partners are left off.
UniProt Q9Y5Y5: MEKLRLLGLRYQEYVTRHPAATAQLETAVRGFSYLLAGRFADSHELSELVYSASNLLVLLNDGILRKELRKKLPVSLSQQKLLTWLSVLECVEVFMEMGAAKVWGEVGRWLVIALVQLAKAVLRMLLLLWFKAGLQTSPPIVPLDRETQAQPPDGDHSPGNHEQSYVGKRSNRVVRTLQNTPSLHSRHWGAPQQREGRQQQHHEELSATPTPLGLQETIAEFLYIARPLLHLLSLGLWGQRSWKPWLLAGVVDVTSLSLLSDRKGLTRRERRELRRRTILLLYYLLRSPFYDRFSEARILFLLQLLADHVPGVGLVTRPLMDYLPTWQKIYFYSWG
UniProt P33897: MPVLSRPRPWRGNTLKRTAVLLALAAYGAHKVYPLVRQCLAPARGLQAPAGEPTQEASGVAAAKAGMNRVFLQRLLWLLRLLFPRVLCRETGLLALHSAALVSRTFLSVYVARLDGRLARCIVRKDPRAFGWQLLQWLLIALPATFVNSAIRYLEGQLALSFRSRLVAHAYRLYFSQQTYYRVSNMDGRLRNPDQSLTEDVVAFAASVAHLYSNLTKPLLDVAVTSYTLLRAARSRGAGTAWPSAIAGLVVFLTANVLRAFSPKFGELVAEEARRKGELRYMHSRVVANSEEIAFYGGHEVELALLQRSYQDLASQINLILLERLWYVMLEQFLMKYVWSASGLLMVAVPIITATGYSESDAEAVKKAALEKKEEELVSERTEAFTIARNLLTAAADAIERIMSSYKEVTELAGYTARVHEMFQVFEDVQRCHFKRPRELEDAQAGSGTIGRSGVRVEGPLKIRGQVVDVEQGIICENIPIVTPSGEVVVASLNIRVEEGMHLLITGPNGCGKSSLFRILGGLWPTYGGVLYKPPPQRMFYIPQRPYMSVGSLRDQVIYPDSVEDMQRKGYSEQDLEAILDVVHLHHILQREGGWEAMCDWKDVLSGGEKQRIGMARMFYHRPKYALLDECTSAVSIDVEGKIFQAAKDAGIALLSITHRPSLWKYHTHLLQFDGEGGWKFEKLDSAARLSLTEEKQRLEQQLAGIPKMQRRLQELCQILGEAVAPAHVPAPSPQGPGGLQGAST
UniProt Q9Y3D6: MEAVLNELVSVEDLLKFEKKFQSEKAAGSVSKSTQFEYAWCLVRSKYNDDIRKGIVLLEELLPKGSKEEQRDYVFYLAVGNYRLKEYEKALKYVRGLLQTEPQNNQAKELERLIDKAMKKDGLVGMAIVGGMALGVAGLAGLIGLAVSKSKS
UniProt O75381: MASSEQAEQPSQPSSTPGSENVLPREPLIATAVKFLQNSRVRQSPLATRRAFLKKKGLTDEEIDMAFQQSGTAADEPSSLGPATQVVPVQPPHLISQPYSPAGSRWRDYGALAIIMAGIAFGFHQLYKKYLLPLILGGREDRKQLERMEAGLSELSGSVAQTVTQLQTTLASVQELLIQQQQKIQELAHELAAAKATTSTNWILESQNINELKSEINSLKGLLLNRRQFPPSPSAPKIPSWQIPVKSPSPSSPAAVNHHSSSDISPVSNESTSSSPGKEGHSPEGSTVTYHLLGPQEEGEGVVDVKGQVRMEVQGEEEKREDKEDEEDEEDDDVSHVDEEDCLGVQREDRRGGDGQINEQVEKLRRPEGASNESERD

T1: ECH1 (UniProt Q13011)
T1 sequence: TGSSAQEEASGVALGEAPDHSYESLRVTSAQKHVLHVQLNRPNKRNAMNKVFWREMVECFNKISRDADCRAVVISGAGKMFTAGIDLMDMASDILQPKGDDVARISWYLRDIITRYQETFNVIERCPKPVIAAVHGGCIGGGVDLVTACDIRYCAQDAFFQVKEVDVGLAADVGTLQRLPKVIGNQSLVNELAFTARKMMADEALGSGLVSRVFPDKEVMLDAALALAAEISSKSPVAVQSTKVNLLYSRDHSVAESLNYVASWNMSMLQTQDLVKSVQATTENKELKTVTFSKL

T2: peroxin PEX6 (UniProt Q13608)
T2 sequence: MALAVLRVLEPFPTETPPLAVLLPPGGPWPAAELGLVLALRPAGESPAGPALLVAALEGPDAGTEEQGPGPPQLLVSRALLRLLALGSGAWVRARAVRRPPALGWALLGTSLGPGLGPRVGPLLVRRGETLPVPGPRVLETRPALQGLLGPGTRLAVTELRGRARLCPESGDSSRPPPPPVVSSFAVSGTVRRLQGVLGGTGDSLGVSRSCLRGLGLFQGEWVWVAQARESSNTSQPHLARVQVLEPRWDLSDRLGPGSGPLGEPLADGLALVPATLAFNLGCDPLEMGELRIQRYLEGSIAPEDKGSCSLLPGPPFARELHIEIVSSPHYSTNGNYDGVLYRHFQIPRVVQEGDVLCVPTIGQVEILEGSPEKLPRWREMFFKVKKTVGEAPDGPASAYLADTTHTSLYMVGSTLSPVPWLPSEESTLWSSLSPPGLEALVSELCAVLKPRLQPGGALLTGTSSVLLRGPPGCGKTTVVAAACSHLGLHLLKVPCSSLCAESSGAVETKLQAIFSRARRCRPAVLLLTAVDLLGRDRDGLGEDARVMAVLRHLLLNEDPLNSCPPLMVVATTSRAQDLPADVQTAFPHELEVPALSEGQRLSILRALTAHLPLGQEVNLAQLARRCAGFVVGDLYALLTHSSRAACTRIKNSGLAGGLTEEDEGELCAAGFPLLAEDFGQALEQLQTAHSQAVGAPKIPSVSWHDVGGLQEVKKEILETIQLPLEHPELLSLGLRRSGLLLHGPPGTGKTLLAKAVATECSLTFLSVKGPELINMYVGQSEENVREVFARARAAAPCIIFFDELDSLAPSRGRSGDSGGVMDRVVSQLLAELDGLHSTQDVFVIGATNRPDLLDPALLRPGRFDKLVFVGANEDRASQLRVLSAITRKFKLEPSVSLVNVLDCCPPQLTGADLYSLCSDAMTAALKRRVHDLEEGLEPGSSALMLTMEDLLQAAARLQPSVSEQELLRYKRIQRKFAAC

T3: PEX11B (UniProt O96011)
T3 sequence: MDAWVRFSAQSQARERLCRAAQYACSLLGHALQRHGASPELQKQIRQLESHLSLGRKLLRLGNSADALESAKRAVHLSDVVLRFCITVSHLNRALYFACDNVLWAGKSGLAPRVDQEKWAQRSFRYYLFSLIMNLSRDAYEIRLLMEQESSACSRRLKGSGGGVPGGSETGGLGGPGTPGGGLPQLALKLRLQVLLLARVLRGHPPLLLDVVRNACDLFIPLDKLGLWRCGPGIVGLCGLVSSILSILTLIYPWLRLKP

T4: PXMP2 (UniProt Q9NR77)
T4 sequence: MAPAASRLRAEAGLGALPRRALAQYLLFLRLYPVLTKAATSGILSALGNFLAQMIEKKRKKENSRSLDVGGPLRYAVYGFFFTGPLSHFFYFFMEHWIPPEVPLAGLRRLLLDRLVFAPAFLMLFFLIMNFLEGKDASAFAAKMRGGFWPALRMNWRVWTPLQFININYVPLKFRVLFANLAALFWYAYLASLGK


Key:
Assay in all cases: FRET or BRET; BRET in living HEK293 cells co-transfected with Rluc (donor) and YFP (acceptor) fusions, acceptor to donor ratio 3:1; read 48 h later with coelenterazine 30 μM; all eight combinations of N- or C-terminal fusions tested in duplicates; interaction assumed if at least one combination gave a BRET ratio above the threshold of 0.094
[1] = biological target: T1, ECH1
[2] = biological target: PEX16 (UniProt Q9Y5Y5)
[3] = biological target: T2, peroxin PEX6
[4] = biological target: ABCD1 (UniProt P33897)
[5] = biological target: FIS1 (UniProt Q9Y3D6)
[6] = biological target: T3, PEX11B
[7] = biological target: PEX14 (UniProt O75381)
[8] = biological target: T4, PXMP2

Row | binding [1] | binding [2] | binding [3] | binding [4] | binding [5] | binding [6] | binding [7] | binding [8] | Binder
1 | binds | binds | binds | binds | binds | binds | binds | binds | peroxisome biogenesis factor 26 (PEX26) wild-type (protein, UniProt Q7Z412-1 1-305) MKSDSSTSAAPLRGLGGPLRSSEPVRAVPARAPAVDLLEEAADLLVVHLDFRAALETCERAWQSLANHAVAEEPAGTSLEVKCSLCVVGIQALAEMDRWQEVLSWVLQYYQVPEKLPPKVLELCILLYSKMQEPGAVLDVVGAWLQDPANQNLPEYGALAEFHVQRVLLPLGCLSEAEELVVGSAAFGEERRLDVLQAIHTARQQQKQEHSGSEEAQKPNLEGSVSHKFLSLPMLVRQLWDSAVSHFFSLPFKKSLLAALILCLLVVRFDPASPSSLHFLYKLAQLFRWIRKAAFSRLYQLRIRD
2 | binds | no binding | no binding | binds | binds | no binding | binds | binds | PEX26 p.Leu45Pro (protein, UniProt Q7Z412-1 1-305) MKSDSSTSAAPLRGLGGPLRSSEPVRAVPARAPAVDLLEEAADLPVVHLDFRAALETCERAWQSLANHAVAEEPAGTSLEVKCSLCVVGIQALAEMDRWQEVLSWVLQYYQVPEKLPPKVLELCILLYSKMQEPGAVLDVVGAWLQDPANQNLPEYGALAEFHVQRVLLPLGCLSEAEELVVGSAAFGEERRLDVLQAIHTARQQQKQEHSGSEEAQKPNLEGSVSHKFLSLPMLVRQLWDSAVSHFFSLPFKKSLLAALILCLLVVRFDPASPSSLHFLYKLAQLFRWIRKAAFSRLYQLRIRD
3 | binds | no binding | no binding | no binding | binds | no binding | binds | binds | PEX26 p.Gly89Arg (protein, UniProt Q7Z412-1 1-305) MKSDSSTSAAPLRGLGGPLRSSEPVRAVPARAPAVDLLEEAADLLVVHLDFRAALETCERAWQSLANHAVAEEPAGTSLEVKCSLCVVRIQALAEMDRWQEVLSWVLQYYQVPEKLPPKVLELCILLYSKMQEPGAVLDVVGAWLQDPANQNLPEYGALAEFHVQRVLLPLGCLSEAEELVVGSAAFGEERRLDVLQAIHTARQQQKQEHSGSEEAQKPNLEGSVSHKFLSLPMLVRQLWDSAVSHFFSLPFKKSLLAALILCLLVVRFDPASPSSLHFLYKLAQLFRWIRKAAFSRLYQLRIRD
4 | binds | no binding | no binding | binds | binds | no binding | binds | binds | PEX26 p.Leu44Pro (protein, UniProt Q7Z412-1 1-305) MKSDSSTSAAPLRGLGGPLRSSEPVRAVPARAPAVDLLEEAADPLVVHLDFRAALETCERAWQSLANHAVAEEPAGTSLEVKCSLCVVGIQALAEMDRWQEVLSWVLQYYQVPEKLPPKVLELCILLYSKMQEPGAVLDVVGAWLQDPANQNLPEYGALAEFHVQRVLLPLGCLSEAEELVVGSAAFGEERRLDVLQAIHTARQQQKQEHSGSEEAQKPNLEGSVSHKFLSLPMLVRQLWDSAVSHFFSLPFKKSLLAALILCLLVVRFDPASPSSLHFLYKLAQLFRWIRKAAFSRLYQLRIRD
5 | binds | no binding | no binding | no binding | binds | no binding | binds | binds | PEX26 p.Pro117Leu (protein, UniProt Q7Z412-1 1-305) MKSDSSTSAAPLRGLGGPLRSSEPVRAVPARAPAVDLLEEAADLLVVHLDFRAALETCERAWQSLANHAVAEEPAGTSLEVKCSLCVVGIQALAEMDRWQEVLSWVLQYYQVPEKLLPKVLELCILLYSKMQEPGAVLDVVGAWLQDPANQNLPEYGALAEFHVQRVLLPLGCLSEAEELVVGSAAFGEERRLDVLQAIHTARQQQKQEHSGSEEAQKPNLEGSVSHKFLSLPMLVRQLWDSAVSHFFSLPFKKSLLAALILCLLVVRFDPASPSSLHFLYKLAQLFRWIRKAAFSRLYQLRIRD
6 | binds | no binding | no binding | no binding | binds | no binding | binds | binds | PEX26 p.Arg98Trp (protein, UniProt Q7Z412-1 1-305) MKSDSSTSAAPLRGLGGPLRSSEPVRAVPARAPAVDLLEEAADLLVVHLDFRAALETCERAWQSLANHAVAEEPAGTSLEVKCSLCVVGIQALAEMDWWQEVLSWVLQYYQVPEKLPPKVLELCILLYSKMQEPGAVLDVVGAWLQDPANQNLPEYGALAEFHVQRVLLPLGCLSEAEELVVGSAAFGEERRLDVLQAIHTARQQQKQEHSGSEEAQKPNLEGSVSHKFLSLPMLVRQLWDSAVSHFFSLPFKKSLLAALILCLLVVRFDPASPSSLHFLYKLAQLFRWIRKAAFSRLYQLRIRD
